Results from the supplement of paper PMC8728848.
The list shows a part of the results.

How the values were obtained:
Test in all cases: glycan array binding signal (z-score within array); higher = stronger binding
Conditions in all cases: glycan notation: IUPAC condensed, linker removed
[1] = target: Gal(b1-4)GlcNAc(b1-3)Gal(b1-4)GlcNAc(b1-3)Gal(b1-4)GlcNAc(b1-3)Gal(b1-4)GlcNAc(b1-3)Gal(b1-4)GlcNAc(b1-2)[Gal(b1-4)GlcNAc(b1-3)Gal(b1-4)GlcNAc(b1-3)Gal(b1-4)GlcNAc(b1-3)Gal(b1-4)GlcNAc(b1-3)Gal(b1-4)GlcNAc(b1-6)]Man(a1-6)[Gal(b1-4)GlcNAc(b1-3)Gal(b1-4)GlcNAc(b1-3)Gal(b1-4)GlcNAc(b1-3)Gal(b1-4)GlcNAc(b1-3)Gal(b1-4)GlcNAc(b1-2)Man(a1-3)]Man(b1-4)GlcNAc(b1-4)[Fuc(a1-6)]GlcNAc
Method in brief: (§1)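 Negative Z-scores can be read as non-binding. The Z-score is calculated within each array and then averaged across arrays of one protein sequence at different concentrations or buffers and across linkers. Arrays, 3228 in all, were curated from the Consortium for Functional Glycomics database and kept only where the protein sequence was available.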

[2] = target: Gal(b1-4)GlcNAc(b1-3)Gal(b1-4)GlcNAc(b1-3)Gal(b1-4)GlcNAc(b1-3)Gal(b1-4)GlcNAc(b1-3)Gal(b1-4)GlcNAc(b1-3)Gal(b1-4)GlcNAc(b1-2)Man(a1-3)[Gal(b1-4)GlcNAc(b1-3)Gal(b1-4)GlcNAc(b1-3)Gal(b1-4)GlcNAc(b1-3)Gal(b1-4)GlcNAc(b1-3)Gal(b1-4)GlcNAc(b1-3)Gal(b1-4)GlcNAc(b1-2)Man(a1-6)]Man(b1-4)GlcNAc(b1-4)GlcNAc
Method in brief: as §1

[3] = target: Gal(b1-4)GlcNAc(b1-3)Gal(b1-4)GlcNAc(b1-3)GalNAc
Method in brief: as §1

[4] = target: Gal(b1-4)GlcNAc(b1-3)Gal(b1-4)GlcNAc(b1-3)[Gal(b1-4)GlcNAc(b1-3)Gal(b1-4)GlcNAc(b1-6)]GalNAc
Method in brief: as §1

[5] = target: Gal(b1-4)GlcNAc(b1-3)Gal(b1-4)GlcNAc(b1-6)[Gal(b1-3)]GalNAc
Method in brief: as §1

[6] = target: Gal(b1-4)GlcNAc(b1-3)Gal(b1-4)[Fuc(a1-3)]GlcNAc(b1-3)Gal(b1-4)[Fuc(a1-3)]GlcNAc
Method in brief: as §1

[7] = target: Gal(b1-4)GlcNAc(b1-3)GalNAc
Method in brief: as §1

[8] = target: Gal(b1-4)GlcNAc(b1-3)[Fuc(a1-3)GlcNAc(b1-6)]Gal(b1-4)Glc
Method in brief: as §1

[9] = target: Gal(b1-4)GlcNAc(b1-3)[Gal(b1-4)GlcNAc(b1-6)]Gal(b1-4)GlcNAc
Method in brief: as §1

[10] = target: Gal(b1-4)GlcNAc(b1-3)[GlcNAc(b1-6)]Gal(b1-4)GlcNAc
Method in brief: as §1

[11] = target: Gal(b1-4)GlcNAc(b1-6)Gal(b1-4)GlcNAc
Method in brief: as §1

[12] = target: Gal(b1-4)GlcNAc(b1-6)GalNAc
Method in brief: as §1

[13] = target: Gal(b1-4)GlcNAc(b1-6)[Gal(b1-3)]GalNAc
Method in brief: as §1

[14] = target: Gal(b1-4)GlcNAc(b1-6)[Gal(b1-4)GlcNAc(b1-3)]GalNAc
Method in brief: as §1

Gal(b1-4)GlcNAc6P = target: Gal(b1-4)GlcNAc6P
Method in brief: as §1

Gal(b1-6)Gal = target: Gal(b1-6)Gal
Method in brief: as §1

Gal3S(b1-3)GalNAc = target: Gal3S(b1-3)GalNAc
Method in brief: as §1

Gal3S(b1-3)GlcNAc = target: Gal3S(b1-3)GlcNAc
Method in brief: as §1

[15] = target: Gal3S(b1-3)[Fuc(a1-4)]GlcNAc
Method in brief: as §1

B1: Na-CTL-1 (Necator americanus) (protein)
chain: MQRSFLLLLVVLAGAWAVNTTIPLKLMGGFTPMKYQCVGRVSDIWADVLFLIESSDMITKSGFRQVIAFITATTKKMTIGQDEKQTRVGFITYGEEAKLIYDLDHWRSTEKLSDLVQKIPYVKSSGTNIAAAIALANKVFNSPTHRPNVPKVMVIVANGLKKGSQNPIPVATAFKDFGGIIITIEYTQYDNIQVPILKKIASEGYNIRSNDEDFSVRTLTNMLLQANCFCPDHYVPFRVNNPEFGCFVTAKIPSMWRDAAEMCRAVEEGKLVKVENEEKAAFIMKLVGPKKEAWIGLRYYGNKFQWTDGTKLNADDFNLWPEDIKELNGPHCVSMYQDQKDKKYYWRAGKCLEDMRYVCEVQPCSASNYCSEPVFMYRQKHRALLPAPPPPPN
glycan array binding signal (z-score) [1]: 1.59 | glycan array binding signal (z-score) [2]: 0.866 | glycan array binding signal (z-score) [3]: -0.022 | glycan array binding signal (z-score) [4]: -0.05 | glycan array binding signal (z-score) [5]: -0.048 | glycan array binding signal (z-score) [6]: -0.29 | glycan array binding signal (z-score) [7]: -0.177 | glycan array binding signal (z-score) [8]: -0.16 | glycan array binding signal (z-score) [9]: -0.557 | glycan array binding signal (z-score) [10]: -0.3 | glycan array binding signal (z-score) [11]: -0.042 | glycan array binding signal (z-score) [12]: 0.111 | glycan array binding signal (z-score) [13]: -0.234 | glycan array binding signal (z-score) [14]: 0.069 | glycan array binding signal (z-score) (Gal(b1-4)GlcNAc6P): -0.23 | glycan array binding signal (z-score) (Gal(b1-6)Gal): -0.175 | glycan array binding signal (z-score) (Gal3S(b1-3)GalNAc): -0.182 | glycan array binding signal (z-score) (Gal3S(b1-3)GlcNAc): 0.98 | glycan array binding signal (z-score) [15]: -0.487
